Assay results as given in PubChem BioAssay AID686979 (National Center for Advancing Translational Sciences (NCATS), 2013).
The campaign covered roughly 420,000 compounds. About 50,000 (12%) were called active. The shares of active, inactive and inconclusive entries below differ from those in the screen. The call rests on the fitted dose curve; in most records, active means well fitted inhibition curve with a large enough effect; inconclusive means small, poorly fitted or top-dose-only effect; inactive means flat fitted curve, though single readings scatter. No potency is given beside an inconclusive call; the fits are too rough.

Test: qHTS for Inhibitors of human tyrosyl-DNA phosphodiesterase 1 (TDP1): qHTS in cells in presence of CPT; further: nearly all actives have a fitted effect of over 55% in size
Conditions: chicken DT40 Tdp1-/-;hTDP1 cells + 20 nM CPT, ATP luminescence, 48 h; activity change, negative = growth inhibition: at 46.2 µM (top of the series)
Summary of the method: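 Cell growth measured by CellTiter-Glo luminescence after a minimum 48 h, 37 C compound exposure with 20 nM CPT in Tdp1-knockout DT40 cells stably expressing hTDP1, seeded 400/well; qHTS titration format.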
On the % scale 0 is the no-effect control and ±100 the full control effect; potency means the concentration at half of the fitted maximal effect; tags describe the fitted curve by direction and shape.

Structure (SMILES)	Potency	activity change, negative = growth inhibition
CN1CCC(NC(=O)c2cccc(Oc3ccccc3)c2)CC1	inactive	–
CN(CCc1ccccc1)C(=O)c1ccc(NC(=O)Cc2ccc(NC(=O)C3CCCN(C(=O)c4ccccc4)C3)cc2)cc1 (stereo not given)	inconclusive [inhibitor, single point]	–
COC(=O)C1=CN(c2ccc(F)cc2)C(N)=C(C#N)C1c1cccc(OC)c1OC (stereo not given)	inconclusive [inhibitor, single point]	–
CC1CN(S(=O)(=O)c2cccc(C(=O)OCC(=O)NCc3ccccc3)c2)CC(C)O1 (stereo not given)	inconclusive [inhibitor, single point]	–
O=C(N/N=C(\c1ccccc1)c1cccnc1)C(O)(c1ccccc1)c1ccccc1	inconclusive [inhibitor, single point]	–
O=C(CN1CC(=O)Oc2ccccc21)OCC(=O)c1ccccc1	inconclusive [inhibitor, partial curve]	–
COc1ccc(N2CCN(Cc3cc(=O)oc4cc(C)c(Cl)cc34)CC2)cc1	–	inconclusive: -30.9% [inhibitor]
C[C@H](NC(=O)N1CCn2c1nc1ccccc12)C(=O)NCC1CCCO1 (stereo not given in full)	inactive	–
O=C(NNC(=O)c1ccccc1O)c1ccc(Cl)c(S(=O)(=O)N2CCc3ccccc32)c1	active: 20.6 µM	–
CCc1cccc(C)c1NC(=O)C1CCCN1S(=O)(=O)c1cccc2nsnc12 (stereo not given)	inconclusive [inhibitor, single point]	–
CCCN(CC(=O)Nc1cc(Cl)ccc1Cl)C(=O)/C=C/c1cc(OC)ccc1OC	inconclusive [inhibitor, single point]	–
Cc1nc(NC(=O)c2ccc(OCC(C)C)cc2)sc1Cc1ccc2c(c1)OCO2	inconclusive [inhibitor, single point]	–
COc1cccc(N2CCN(C(=O)CCc3nnc4ccc(N5CCCC5)nn34)CC2)c1	inconclusive [inhibitor, single point]	–
O=C(NC(NC(=S)Nc1ccccc1C(=O)O)C(Cl)(Cl)Cl)c1ccccc1 (stereo not given)	inactive	–
CCC(C)(C)NC(=O)CN(CC1CCCO1)C(=O)CCC(=O)Nc1nccs1 (stereo not given)	inactive	–
CCn1c(Oc2ccccc2F)nc2c1c(=O)n(C)c(=O)n2C	inconclusive [inhibitor, partial curve]	–
Cc1ccc(-c2noc(CSc3nnc(-c4ccncc4)n3-c3ccc(C)cc3)n2)cc1	active: 20.6 µM	–
O=C(Nc1cccc(Cl)c1)OCCOCCOC(=O)Nc1cccc(Cl)c1	inconclusive [inhibitor, single point]	–
O=S(=O)(N1CCCCC1)N1CCCN(S(=O)(=O)N2CCCCC2)CC1	inactive	–
O=C1/C(=C/c2cccs2)SC(=S)N1CCC(=O)N1CCCCC1CCO (stereo not given)	inconclusive [inhibitor, partial curve, poor fit]	–
CC(=O)Nc1ccc(NC(=O)CSc2ccc(-c3sc(C)nc3C)nn2)cc1	inactive	–
CN1CCCCC1(C)C(=O)NCc1ccc(F)cc1 (stereo not given)	inactive	–
COc1cc(/C=N/N2CCN(Cc3ccc(Cl)cc3)CC2)cc(Br)c1O	inconclusive [inhibitor, single point]	–
Cc1ccc(C)c(OCCC(=O)Nc2cc(S(=O)(=O)N3CCCCC3)ccc2C)c1	inconclusive [inhibitor, single point]	–

Structure (SMILES)	Potency	activity change, negative = growth inhibition
COc1cccc(/C(N)=N/OC(=O)Cc2ccccc2[N+](=O)[O-])c1	inconclusive [inhibitor, full curve, poor fit]	–
CCCC(=O)N1CCN(c2nc3ccc(F)cc3s2)CC1	active: 14.6 µM	–
Cc1ccc(C(=O)c2cn(Cc3ccccc3)c3nc(C)ccc3c2=O)cc1	inconclusive [inhibitor, single point]	–
Cc1nc(N2CCCC2)c2c(C(=O)N3CCN(c4cc(Cl)ccc4C)CC3)c(C)oc2n1	inconclusive [inhibitor, single point]	–
Cc1ccc(Cl)cc1NC(=O)COC(=O)Cn1cnc2c1c(=O)n(C)c(=O)n2C	inactive	–
CC(C)NC(=O)N1CCC2(CC1)CCN(S(C)(=O)=O)CC2	inactive	–
C[n+]1cn(CC(O)COCc2ccccc2)c2ccccc21 (stereo not given)	inconclusive [inhibitor, single point]	–
Cc1ccc(S(=O)(=O)N(C)C)cc1NC(=O)c1cc(=O)[nH]c2ccccc12	inactive	–
OCC[C@@H]1C[C@@H](O)[C@H](O)[C@@]2(CCCO2)O1	inconclusive [inhibitor, single point]	–
CC(C)N1CCC(N2CCN(Cc3ccc(-c4ccccc4Cl)o3)CC2CCO)CC1 (stereo not given)	inconclusive [inhibitor, single point]	–
COc1ccc(C)cc1Nc1n[n+](-c2ccccc2)c(-c2cc(OC)c(OC)cc2Br)s1	active: 23.1 µM	–
COc1cc(S(=O)(=O)N(Cc2cccnc2)Cc2ccco2)ccc1-n1cnnn1	inconclusive [inhibitor, single point]	–
Cc1cccc(NC(=O)c2cn(-c3ccccc3)nc2-c2ccccc2)c1	inconclusive [inhibitor, single point]	–
COC(=O)c1sccc1NC(=O)c1c(C)c(-c2cccc(Cl)c2)nc2ccccc12	inconclusive [inhibitor, single point]	–
COc1ccc2c(Cl)c(C(=O)NCCCn3ccnc3)sc2c1Cl	inconclusive [inhibitor, single point]	–
Cn1c(=O)c2c(nc(CN3CCN(c4ccccc4)CC3)n2CCc2ccccc2)n(C)c1=O	active: 23.1 µM	–
CCOCCCN(C)C1CCN(C(=O)c2oc3ccccc3c2NC(=O)Cc2ccc([N+](=O)[O-])cc2)CC1	inconclusive [inhibitor, single point]	–
O=C(CCSCCC(=O)NN=Cc1ccc(F)cc1)NN=Cc1ccc(F)cc1	inactive	–
O=C(CCCN1C(=O)/C(=C/c2cccs2)SC1=S)NNC(=O)c1ccccc1O	active: 20.6 µM	–
O=C(COC(=O)c1cc([N+](=O)[O-])ccc1N1CCOCC1)c1ccc(OC(F)F)cc1OC(F)F	inconclusive [inhibitor, single point]	–
Cc1cc(OC(=O)Nc2ccccc2)ccc1Cl	inactive	–
O=C(CNCc1ccccn1)Nc1cc(S(=O)(=O)N2CCCCC2)ccc1Cl	inactive	–
Nc1cc(N)cc(N)c1	active: 4.47 µM	–
COc1ccc(-c2cnc3c(NC(C)=O)cc(-c4cccc(C(=O)NCCO)c4)cn23)cc1OC	active: 20.6 µM	–

Structure (SMILES)	Potency	activity change, negative = growth inhibition
O=C(Nc1ccc(F)cc1)c1cccc(N2C(=O)C3C4C=CC(C5CC45)C3C2=O)c1 (stereo not given)	active: 16.4 µM	–
Cc1cc(NC(=O)C(=O)NCCN2CCN(S(C)(=O)=O)CC2)ccc1Br	inconclusive [inhibitor, single point]	–
COc1ccc(NC(=O)CN(C)CC(=O)Nc2sc3c(c2C(N)=O)CCC3)cc1	active: 20.6 µM	–
O=c1ccn(-c2cccc(C(F)(F)F)c2)nc1-c1ccn(-c2cccc(Cl)c2)n1	inconclusive [inhibitor, single point]	–
COc1ccccc1C(=O)NNC(=O)c1nn(Cc2ccccc2)c(=O)c2ccccc12	active: 20.6 µM	–
C=CCOc1c(Br)cc(/C=N/O)cc1OCC	inconclusive [inhibitor, single point]	–
CC(C)c1nc2sc3c(c2c(=O)n1N)CC(C)(C)OC3	inconclusive [inhibitor, single point]	–
CCc1ccccc1NC(=S)N(CCOC)C(C)c1ccco1 (stereo not given)	inconclusive [inhibitor, single point]	–
O=C(CNC(=O)c1ccc(S(=O)(=O)N2CCCC2)cc1)N/N=C/c1ccc(F)cc1	inconclusive [inhibitor, single point]	–
COC(=O)c1cc2oc3ccccc3c2n1CC(=O)Nc1ccc(C)c(F)c1	inconclusive [inhibitor, partial curve, poor fit]	–
Cn1c(Cn2nnc3ccccc32)nnc1SCC(=O)c1ccc(F)cc1	inconclusive [inhibitor, single point]	–
CCC1=Nc2cc(C(=O)NCCN3CCOCC3)ccc2Sc2ccc(Br)cc21	inactive	–
O=C(Nc1cccc(F)c1)c1ccccc1-c1ccccc1	inconclusive [inhibitor, single point]	–
Cn1c(SCC(=O)N2CCCCC2)nc2c([nH]c3ccccc32)c1=O	inconclusive [inhibitor, partial curve, poor fit]	–
COc1ccc(CSCC(=O)Nc2ccccc2SC)cc1	–	inconclusive: -33% [inhibitor]
Cc1ccc(Sc2c(CO)c(-c3ccccc3)nn2C)cc1	active: 1.16 µM	–
CCOc1ccc(NC(=O)Cn2c(=O)n(-c3cccc(Cl)c3)c(=O)c3c2c2cc(C)ccc2n3C)cc1	inactive	–
COc1cc(NC(=O)C2CCN(S(=O)(=O)c3cccc4nonc34)CC2)cc(OC)c1	inactive	–
COc1ccc(NS(=O)(=O)c2ccc(NC(=O)c3ccccc3)cc2)nn1	inconclusive [inhibitor, single point]	–
COc1ccc(NC(=S)Nc2cccc3cnccc23)cc1	inactive	–
COc1ccc(S(=O)(=O)Nc2cccc(-c3ccc(N4CCC(C)CC4)nn3)c2)c(OC)c1	inconclusive [inhibitor, single point]	–
Clc1ccc2oc3c(Cl)ncnc3c2c1	active: 18.4 µM	–
